# According to PubChem BioAssay AID504332 (National Center for Advancing Translational Sciences (NCATS), 2011):
# About 31,000 (8.9%) of roughly 350,000 compounds were called active. The shares of active, inactive and inconclusive entries below differ from those in the screen. Calls follow the shape of the dose curve; as a rule, active = well fitted inhibition curve with a large enough effect; inconclusive = small, poorly fitted or top-dose-only effect; inactive = no such curve, though single readings can be large or run the other way. Where the call is inconclusive, the potency comes from a doubtful curve fit. Some structures have more than one record in an assay (separate samples or runs), and their calls can disagree.
# Target: Histone-lysine N-methyltransferase EHMT2 (Homo sapiens) (UniProt Q96KQ7)
# Chain of UniProt Q96KQ7 (Q96KQ7 whole entry, looked up): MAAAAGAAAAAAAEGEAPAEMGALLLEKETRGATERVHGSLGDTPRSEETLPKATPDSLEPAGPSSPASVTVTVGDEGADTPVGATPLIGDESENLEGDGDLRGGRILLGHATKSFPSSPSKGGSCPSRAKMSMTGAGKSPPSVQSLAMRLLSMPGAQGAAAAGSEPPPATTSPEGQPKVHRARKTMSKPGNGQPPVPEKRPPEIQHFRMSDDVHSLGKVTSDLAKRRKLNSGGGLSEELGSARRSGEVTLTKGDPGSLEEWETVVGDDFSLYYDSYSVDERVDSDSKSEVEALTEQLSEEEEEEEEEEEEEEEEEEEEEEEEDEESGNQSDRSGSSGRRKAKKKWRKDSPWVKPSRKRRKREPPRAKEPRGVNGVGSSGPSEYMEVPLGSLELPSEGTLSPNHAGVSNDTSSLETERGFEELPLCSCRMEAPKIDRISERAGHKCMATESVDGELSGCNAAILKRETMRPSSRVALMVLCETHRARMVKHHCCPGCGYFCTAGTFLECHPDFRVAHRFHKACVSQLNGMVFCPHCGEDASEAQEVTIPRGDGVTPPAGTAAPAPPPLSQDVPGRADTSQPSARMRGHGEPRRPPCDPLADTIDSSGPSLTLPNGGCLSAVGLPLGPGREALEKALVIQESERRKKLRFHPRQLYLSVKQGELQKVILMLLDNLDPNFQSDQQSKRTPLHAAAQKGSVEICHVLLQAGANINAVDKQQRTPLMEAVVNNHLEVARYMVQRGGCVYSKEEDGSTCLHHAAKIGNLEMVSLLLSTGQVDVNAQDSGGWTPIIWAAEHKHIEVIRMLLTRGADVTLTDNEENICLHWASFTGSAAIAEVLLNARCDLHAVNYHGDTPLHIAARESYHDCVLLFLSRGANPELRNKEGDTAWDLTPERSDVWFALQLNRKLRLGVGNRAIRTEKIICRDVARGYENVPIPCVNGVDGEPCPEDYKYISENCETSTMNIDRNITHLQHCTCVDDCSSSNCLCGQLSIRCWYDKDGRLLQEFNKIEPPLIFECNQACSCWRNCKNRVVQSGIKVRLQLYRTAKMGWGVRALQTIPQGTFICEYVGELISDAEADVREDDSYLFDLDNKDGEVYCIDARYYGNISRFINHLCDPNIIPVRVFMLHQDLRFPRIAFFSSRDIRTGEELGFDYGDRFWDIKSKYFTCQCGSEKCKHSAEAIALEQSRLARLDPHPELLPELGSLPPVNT
# Test: qHTS Assay for Inhibitors of Histone Lysine Methyltransferase G9a; also: nearly all actives have a fitted effect of over 75% in size
# Details: G9a H3K9 monomethylation, AlphaScreen, 2 h; activity, negative = inhibition: at 59 µM (top of the series) unless noted
# Procedure, shortened: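 Signal arises when biotinylated H3K9 peptide, once monomethylated, bridges streptavidin donor and antibody-captured acceptor beads. Enzyme at 20 nM was preincubated 15 min with test compounds; peptide 500 nM and SAM 20 uM then reacted for 2 h.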
# % is scaled to controls: 0 for no effect and ±100 for the full control effect; potency is read from the fitted curve at half-maximal effect; tags tell the direction and shape of the fitted curve.
SMILES,Potency,"activity, negative = inhibition"
Cc1c(NC(=O)C(=O)/C=C(\O)c2ccc(Cl)cc2)c(=O)n(-c2ccccc2)n1C,inactive,–
Cc1cc(C(=O)NCCCN(C)C)c2ccccc2n1,"inconclusive: 89.1 µM [inhibitor, single point]",–
CC(C)CN1C(=O)C(=O)N(CC(=O)N(C)CC(=O)Nc2ccc(F)cc2)C1=O,"inconclusive: 0.398 µM [inhibitor, partial curve, poor fit]",–
COc1ccc(OC)c(S(=O)(=O)NCc2ccc3c(c2)CCN3C(=O)c2cccc(C)c2)c1,inactive,–
CCSc1nc(C)c(C(C)=O)cc1C#N,inactive,–
Oc1ccc(Br)cc1C=Nc1ccc2[nH]ncc2c1,"inconclusive: 31.6 µM [inhibitor, single point]",–
C=CCN1C(=O)/C(=C\c2cc(Br)c(OCc3ccccn3)c(OC)c2)SC1=S,"inconclusive: 2 µM [inhibitor, full curve]",–
CCCN(CC(=O)Nc1ccccc1OC)C(=O)Cc1ccccc1F,inactive,–
OCCC1CN(Cc2cccn2-c2ncccn2)CCN1C1CCCC1 (stereo not given),inactive,–
COc1ccc(CNC(=O)c2ccc3c(c2)CCN3S(=O)(=O)c2ccccc2)cc1,inactive,–
CN(C)c1ccc(CNC2C3CC4CC(C3)CC2C4)cc1 (stereo not given),"inconclusive: 22.4 µM [inhibitor, single point]",–
CC1CCN(C(=S)c2cn(Cc3cccc(F)c3)c3ccccc23)CC1,inactive,–
CN1CCN(C(=O)C2=C[C@@H](C3CCCCC3)C[C@@H](OCCCCO)O2)CC1,–,inconclusive: -51.2% [inhibitor]
CCNc1nnc(CCn2nc(C)c(Br)c2C)s1,inactive,–
Cc1ccc(C2=[N+]([O-])C3(CCCCC/C3=N\O)N(O)C2(C)C)o1 (stereo not given),"inconclusive: 1.41 µM [inhibitor, full curve, poor fit]",–
CCn1cc(C(=O)NCc2ccccc2Cl)c(=O)c2cc(S(=O)(=O)N3CCCCCC3)ccc21,inactive,–
Cc1cccc(N2C(=O)c3cccc4cccc(c34)C2=O)c1,–,inactive: -3.4% [at 0.501 µM]
CC(C)c1ccc(C2C3=C(CC(C)(C)CC3=O)NC3=C2C(=O)c2ccccc23)cc1 (stereo not given),"inconclusive: 20 µM [inhibitor, partial curve, poor fit]",–
CC1C(=O)CC(c2ccco2)NC1c1ccco1 (stereo not given),"inconclusive: 3.16 µM [inhibitor, single point]",–
COc1ccc(CNc2nc(-c3ccco3)nn2C(=O)c2ccccc2C)cc1,"inconclusive: 25.1 µM [inhibitor, single point]",–
COCCN(C(=O)CSc1nnc(-c2ccccc2F)o1)c1c(N)n(CC(C)C)c(=O)[nH]c1=O,"inconclusive: 79.4 µM [inhibitor, partial curve, poor fit]",–
S=C(Nc1cccc(Cl)c1)N(CCCN1CCCC1)Cc1cccn1Cc1ccc(Cl)cc1,active: 35.5 µM,–
Cc1cc(CNC(=O)[C@H]2C[C@@H]2[C@H](NP(=O)(c2ccccc2)c2ccccc2)c2ccccc2)nn1C,"inconclusive: 56.2 µM [inhibitor, partial curve, poor fit]",–
CCOC(=O)c1sc2cccc(F)c2c1S(=O)(=O)Nc1ccccc1F,inactive,–

SMILES,Potency,"activity, negative = inhibition"
Cc1ccc(C)c(NC(=O)Cn2c(=O)n(CC(=O)NCCc3ccccc3)c(=O)c3ccccc32)c1,inactive,–
Cc1ccc(NC(=O)Cn2c(=O)cc(-c3ccccc3)c3c(C)nn(C)c32)c(Cl)c1,inactive,–
CC(=O)Nc1ccc(S(=O)(=O)Nc2nc3ccccc3nc2Nc2ccc(O)c(C(=O)O)c2)cc1,active: 79.4 µM,–
CCS(=O)(=O)c1ccc2c(c1)N(S(=O)(=O)c1ccc(Cl)cc1)CC(C(=O)O)O2 (stereo not given),"inconclusive: 89.1 µM [inhibitor, partial curve, poor fit]",–
c1ccn2cc(CSC3=NCCS3)nc2c1,"inconclusive: 20 µM [inhibitor, single point]",–
O=S(=O)(c1ccccc1)c1nc(-c2ccco2)oc1SCc1ccc(F)cc1,inactive,–
O=C(CNC(=O)c1ccc(Br)o1)Nc1ccc(F)c(S(=O)(=O)N2CCOCC2)c1,active: 44.7 µM,–
O=C(N/C(=C/c1ccco1)C(=O)N1CCCCC1)c1cccs1,"inconclusive: 25.1 µM [inhibitor, single point]",–
COc1ccc(N2CCN(C(=O)c3ccc4c(c3)NC(=O)C(CSCc3c(F)cccc3Cl)N4)CC2)cc1 (stereo not given),active: 31.6 µM,–
C#CCOCCOCCOCCNc1nc(N2CCN(C(=O)Cn3cc(CCCCN)nn3)CC2)nc(N2CCN(C(=O)[C@H](C)n3cc(CCCN=C(N)N)nn3)CC2)n1,active: 28.2 µM,–
CC(C)(C)NC(=O)N1c2ccccc2Sc2ccccc21,inactive,–
CCOC(=O)CC(NC(=O)CCc1c(C)nc2cc(-c3ccccc3)nn2c1C)c1ccc(C)cc1 (stereo not given),inactive,–
COC(=O)CN(c1ccccc1F)S(=O)(=O)c1ccccc1,–,inactive: -28.3% [at 12.7 µM]
Cc1cc(C)nc(SCc2cccc(C(=O)O)c2)n1,"inconclusive: 1.58 µM [inhibitor, partial curve, poor fit]",–
CC(C)NNC(=O)c1ccncc1,active: 11.2 µM,–
O=C(O)CC1C(=O)NCCN1Cc1ccc(F)c(F)c1 (stereo not given),"inconclusive: 22.4 µM [inhibitor, partial curve, poor fit]",–
O=C(Cc1c[nH]c2ccccc12)Nc1nnc(C2CC2)s1,inactive,–
COc1cc(OC)c(NC(=O)C(C)n2nc(-c3ccc(C)cc3)c3c(c2=O)CCCC3)cc1Cl (stereo not given),"inconclusive: 8.91 µM [inhibitor, partial curve, poor fit]",–
Cc1ccccc1N1C(=O)C(Cl)=C(N2CCN(c3ccccc3)CC2)C1=O,"inconclusive: 7.94 µM [inhibitor, partial curve]",–
O=C(Nc1c(-c2cccs2)nc2ccccn12)c1ccc2ccccc2c1,"inconclusive: 89.1 µM [inhibitor, partial curve, poor fit]",–
CC1CCN(S(=O)(=O)c2nnc(NC(=O)COc3ccccc3F)s2)CC1,inactive,–
CCOC(=O)N1CCC(NC(=O)c2oc3c(c2C)-c2[nH]ncc2CC3)CC1,"inconclusive: 89.1 µM [inhibitor, single point]",–
CCCCn1c(N)c(N(CCOC)C(=O)c2ccc(S(=O)(=O)N3CCC(C)CC3)cc2)c(=O)[nH]c1=O,"inconclusive: 89.1 µM [inhibitor, single point]",–
Cc1cccc(Nc2nc(N3CCCC3)nc(N3CCCC3)n2)c1,"inconclusive: 39.8 µM [inhibitor, partial curve, poor fit]",–

SMILES,Potency,"activity, negative = inhibition"
CCn1c(O)c(C2=c3ccccc3=NC2=O)c2cc(Br)ccc21,"inconclusive: 56.2 µM [inhibitor, single point]",–
O=C(CCN1C(=O)C2(OCCO2)c2ccccc21)c1ccccc1,inactive,–
CCOC(=O)c1ccc(NS(=O)(=O)c2ccc3c(c2)NC(=O)CCS3)cc1,inactive,–
Cc1nc2ccccc2n1/C(=N\S(=O)(=O)c1ccccc1)c1ccccc1,active: 50.1 µM,–
NS(=O)(=O)c1ccc(Nc2nc(-c3ccc(O)cc3)cs2)cc1,"inconclusive: 2 µM [inhibitor, full curve, poor fit]",–
O=C(CN1C(=O)CCOc2ccccc21)Nc1ccc(Cl)c(S(=O)(=O)N2CCOCC2)c1,"inconclusive: 15.8 µM [inhibitor, partial curve, poor fit]",–
O=C(NC1CCCCC1)c1ccc(Br)o1,"inconclusive: 79.4 µM [inhibitor, partial curve, poor fit]",–
O=C(CN1C(=O)NC2(CCCC2)C1=O)c1ccc(Cl)s1,active: 79.4 µM,–
Cc1ccc(C(=O)O)cc1NC(=S)NC(=O)c1ccc(-c2ccc(Cl)cc2)o1,active: 35.5 µM,–
Oc1ccc(C2C(c3ccccc3)=NN=C(c3ccccc3F)N2O)c(O)c1 (stereo not given),active: 50.1 µM,–
O=C(O)CCCCCCC1C(=O)NC(=O)N1CCC(O)C1CCCCC1 (stereo not given),"inconclusive: 89.1 µM [inhibitor, single point]",–
COc1ccc(C(=O)N2CCCC(C(N)=O)C2)cc1S(=O)(=O)N1CCOCC1 (stereo not given),"inconclusive: 0.112 µM [inhibitor, partial curve, poor fit]",–
COCCn1c(-c2ccc(OC)cc2)cnc1N,"inconclusive: 79.4 µM [inhibitor, single point]",–
COc1ccc(NC(=S)NCCc2ccccc2OC)c(OC)c1,"inconclusive: 14.1 µM [inhibitor, partial curve, poor fit]",–
C/C(CC(C)C)=N\Nc1ccc(S(N)(=O)=O)cc1[N+](=O)[O-],"inconclusive: 79.4 µM [inhibitor, single point]",–
N#CCCn1c(SCC(=O)c2c[nH]c3ccccc23)nc2ccccc21,"inconclusive: 25.1 µM [inhibitor, single point]",–
CCCc1[nH]nc2c1C(c1cccc(OC(=O)c3ccco3)c1)C(C#N)=C(N)O2 (stereo not given),"inconclusive: 8.91 µM [inhibitor, partial curve, poor fit]",–
CCN(CC(=O)NCc1ccc(Cl)cc1)C(=O)c1ccc(C#N)cc1,active: 39.8 µM,–
O=C(NC(=S)Nc1ccccc1N1CCCCC1)c1ccc(-c2cccc([N+](=O)[O-])c2)o1,"inconclusive: 28.2 µM [inhibitor, partial curve]",–
Cc1nn(C(C)C(=O)NCCN2CCCC2)c(=O)c2c1sc1ccccc12 (stereo not given),inactive,–
CCc1ccc(NC(=O)CC2C(=O)N(c3ccc(Cl)cc3)C(=O)N2C2CCCC2)cc1 (stereo not given),"inconclusive: 4.47 µM [inhibitor, partial curve, poor fit]",–
Cc1ccc2nc(-c3ccccc3)oc(=O)c2c1,inactive,–
